The values below come from ChEMBL document CHEMBL4888484, “Replenishing the malaria drug discovery pipeline: Screening and hit evaluation of the MMV Hit Generation Library 1 (HGL1) against asexual blood stage Plasmodium falciparum ,using a nano luciferase reporter read-out” (2022).

Screen size: about 150,000 compounds; about 540 (0.36%) showed an effect of 50% or more. The list shows a part of the results.

The subject of this experiment is Plasmodium falciparum. Put plainly: Primary screen in NF54 nanoGlo assay, in single point, at 2uM, 72h; a lower Z score goes with more inhibition. It counts as functional, Erythrocyte. The conditions noted are these: timepoint 72 hour.
Regarding `COC(=O)c1cc(CNc2cccnc2)cn1C`, the % Inhibition (usually the relative decrease from the control value, in per cent) is given as -1% and the Z score was determined as 0.28.
Consider `COc1ccc(NC(=O)Cn2nc3c(N4CCC[C@H](C)C4)nccn3c2=O)c(OC)c1`, for which the “% Inhibition” value was -13% and the Z score was determined as 1.46.
As for `COc1ccc([C@H]2CN(C(=O)c3ccccc3-c3nnn[nH]3)C[C@@H]2N)cc1`, the “% Inhibition” value is -1% and the Z score was 0.14.
For the compound `CC(C)OCCNC(=O)c1cc(Cl)cc(F)c1Br`, the “% Inhibition” value is listed as -2% and the Z score is on record as 0.42.
For `Cc1cc(NCCc2nccn2C)ncn1` the same measures were 35% and -5.
For `Cn1ccc(C(=O)NC2CCN(Cc3ccccc3)CC2)cc1=O` the same measures were -4% and 0.82.
For `NC(=O)[C@H]1CCCN(CCNC(=O)c2cc(-c3ccc(O)cc3)n[nH]2)C1` the same measures were -8% and 0.86.
On to `O=C1CN(CCCO)[C@@H](Cc2ccccc2)CN1c1cccc(-c2ccccc2)c1`, for which the “% Inhibition” value was -6% and the Z score stood at 0.54.
For `Cc1nsc(N2CCS(=O)(=O)c3ccccc3C2)n1`, the “% Inhibition” value is -7% and the Z score was found to be 1.18.
As to `CCc1cnc(C)nc1N1CCC[C@@](CO)(CC2CC2)C1`, the “% Inhibition” value was -3% and the Z score was 0.48.
For `COc1cc(=O)n(C)cc1C(=O)N[C@H](c1cccnc1)C1CCOCC1` the same measures were -11% and 2.
For `O=C(Cn1ccccc1=O)N[C@@H]1[C@H]2CCO[C@H]2[C@H]1Cc1ccccc1` the same measures were -5% and 0.83.
For `CCNC(=O)N[C@H](c1ccccc1OC(F)F)C(F)(F)F` the same measures were 10% and -1.18.
With `COc1cccc([C@H](C)n2ccnc2-c2[nH]cnc2C)c1`, the “% Inhibition” value stood at 0% and the Z score is -0.06.
Regarding `CC1CCN(Cc2ccc(C(=O)NCCc3n[nH]c(N)n3)o2)CC1`, the “% Inhibition” value is recorded as -9% and the Z score turned out to be 1.72.
For `Cn1nc(NC(=O)Cc2ccco2)cc1C(F)(F)F` the same measures were -7% and 0.76.
For `N#CC1(c2ccccn2)CCN(C2Cc3ccccc3C2O)CC1` (stereo unspecified) the same measures were -8% and 1.45.
For `COC(=O)Cc1nnc(NC(=O)C(C)C)s1` the same measures were -10% and 1.32.
In the case of `COc1ccc(CN2CC(CN(Cc3ccc(F)cc3)C(C)=O)C(c3ccc(OC)cc3)C2)cc1` (stereo unspecified), the “% Inhibition” value is listed as -10% and the Z score was 1.03.
For the compound `COc1ccccc1OCCN1C[C@@H](C(=O)Nc2cnn(C)c2)CC1=O`, the “% Inhibition” value turned out to be 4% and the Z score is given as -0.62.
Consider `Clc1ccccc1-c1c[nH]c([C@@H]2CCCN2)n1`, for which the “% Inhibition” value came out at 39% and the Z score is -5.22.
For `Cn1cc(C(N)=O)c(NCC2CCC2)n1` the same measures were -6% and 0.61.
For `COc1ccc(Cl)c2c1CCC[C@@H]2NCc1ncnn1C(C)(C)C` the same measures were 6% and -0.72.
For `CC[C@H](NC(=O)c1nnc2n1CCCC2)c1cn2cccnc2n1` the same measures were -5% and 0.78.
As to `Nc1c(C(=O)NCCOCC(F)(F)F)ccnc1C(F)(F)F`, the “% Inhibition” value is listed as 1% and the Z score is given as -0.21.
For `Cc1ccc(-c2cn(C3CCN(C(=O)Nc4ccsc4)CC3)nn2)cc1` the same measures were -9% and 1.31.
In the case of `O=C(C[C@@H]1C=CCC1)NCCc1ccc(F)cc1`, the “% Inhibition” value is recorded as 2% and the Z score was -0.3.
With `O=C1CN(c2ccc(NC(=O)c3ccc(-c4ccccc4F)o3)cn2)CCN1`, the “% Inhibition” value is given as -14% and the Z score turned out to be 2.75.
For `Nc1ncc(C(=O)NC2(CO)CCCCCC2)s1` the same measures were -2% and 0.44.
Turning to `CCCCNC(=O)N[C@H](c1ccc(C)c(F)c1)C(Cl)(Cl)Cl`, the “% Inhibition” value was -7% and the Z score was 0.87.
For `Cc1nc(C)n(C[C@H](C)NC(=O)c2cccs2)n1` the same measures were -3% and 0.45.
For `N#Cc1cccc(C(=O)N2CCC3(CCC(=O)N(Cc4cccnc4)C3)CC2)c1` the same measures were -7% and 0.95.
For `Cc1cccc(N/C(=N/N)c2ccc3ccccc3n2)c1` the same measures were -4% and 0.56.
With `C[C@@H]1CN(C[C@@H]2CN(c3ncccc3F)C[C@@H]2CO)C[C@H](C)O1`, the “% Inhibition” value is recorded as 13% and the Z score is on record as -1.65.
For `CC(c1nccs1)N1CCN(C(=O)C(N)C2CCC2)CC1` (stereo unspecified) the same measures were -10% and 1.97.
For `COc1ccc(-c2ccc(=O)n(-c3c(C)noc3C)n2)cc1S(=O)(=O)NCc1ccccn1` the same measures were 17% and -2.03.
For `O=C(NC1CCN(Cc2ccccc2)CC1)[C@H]1CCC(=O)N(C2CCCCCC2)C1` the same measures were -6% and 0.7.
Regarding `CC(C)Cc1nc(-c2ccccc2C#N)n(-c2ccccn2)n1`, the “% Inhibition” value is recorded as -4% and the Z score is listed as 0.59.
In the case of `CCc1ncnc(N2CC[C@H](C(N)=O)C2)c1F`, the “% Inhibition” value is -9% and the Z score turned out to be 1.55.
For `O=C(NCCc1csc(N2CCCC2)n1)N[C@H]1CCO[C@@H]1c1cccnc1` the same measures were 0% and 0.03.
For `CCNC(=O)N1CCN(C2CC(C)OC(C)C2)CC1` (stereo unspecified) the same measures were 33% and -3.76.
For `O=C(CC1CCCCC1)NCc1ccccc1CN1CCOCC1` the same measures were -8% and 1.6.
Take `Cc1nc2n(n1)C[C@@H](c1nc(Cc3conc3C)no1)CC2`: the “% Inhibition” value was -4% and the Z score was found to be 0.73.
